Consider 42 compounds from ChEMBL document CHEMBL4888484, “Replenishing the malaria drug discovery pipeline: Screening and hit evaluation of the MMV Hit Generation Library 1 (HGL1) against asexual blood stage Plasmodium falciparum ,using a nano luciferase reporter read-out” (2022).

Among all 150,000 compounds or so, about 540 (0.36%) showed an effect of 50% or more. This is one part of the list.

This assay concerns Plasmodium falciparum. In words: Primary screen in NF54 nanoGlo assay, in single point, at 2uM, 72h; a lower Z score goes with more inhibition. Particulars: timepoint 72 hour. The assay is classed as functional, Erythrocyte.
On to `CCCCc1cc(C[C@H]2CNCC[C@H]2CC(=O)N2CCN(c3ccccn3)CC2)no1`, for which the “% Inhibition” value is given as -12% and the Z score came to 2.27.

With `C[C@](O)(C(=O)N1CC[S+]([O-])CC1)c1ccccc1C(F)(F)F`, the “% Inhibition” value is -1% and the Z score came out at 0.14.

With `O=C(C[C@H](c1cccs1)c1cn(Cc2ccc(F)cc2)c2ccccc12)NCc1ccccc1`, the “% Inhibition” value is recorded as -16% and the Z score is recorded as 1.61.

For `CC(C)C(=O)N(Cc1ccccc1OS(=O)(=O)c1ccc(F)cc1)CC1CC1`, the “% Inhibition” value amounted to 0% and the Z score is 0.05.

On to `O=C(N[C@H](C(=O)O)c1ccccc1)c1cccc(Cl)c1`, for which the “% Inhibition” value is listed as -6% and the Z score came to 0.73.

Take `CC1=C(C(=O)N(C)C[C@H]2CCOC2)OCCO1`: the “% Inhibition” value is -12% and the Z score worked out at 1.91.

As for `Cc1nn(C)c(C)c1-c1nc2c([nH]1)c(C)nn2-c1ccccc1`, the “% Inhibition” value is listed as -14% and the Z score came to 2.62.

For the compound `COc1ccc([C@@H]2Cn3nnc(C(=O)N(C)CCc4ccccn4)c3CO2)cc1`, the “% Inhibition” value is on record as -11% and the Z score came out at 1.27.

For `Cc1ccc(CC(=O)Nc2cc(C)on2)cn1`, the “% Inhibition” value is reported as -1% and the Z score was found to be 0.23.

`COCCc1noc([C@H](C)NC(=O)c2ccc[nH]2)n1`: the “% Inhibition” value was -14% and the Z score worked out at 1.82.

Take `NS(=O)(=O)N1CCC2CCCCC2C1` (centres undefined): the “% Inhibition” value is reported as -10% and the Z score was 1.26.

Turning to `C[C@H](NC(=O)NOCc1ccccc1)c1ccc2c(c1)CC(=O)N2`, the “% Inhibition” value amounted to 27% and the Z score is -3.04.

Regarding `Cn1ccc([C@@H]2CCCCN2C(=O)Cn2cnc3ccccc3c2=O)n1`, the “% Inhibition” value is recorded as -17% and the Z score came to 2.34.

In the case of `Cn1ccnc1C(=O)N1CC[C@@H]2CN(Cc3ccccc3)[C@@H]2C1`, the “% Inhibition” value is reported as -4% and the Z score stood at 0.52.

As to `O=C(Cc1ccc(F)cc1)NCc1ccnc(-c2ccsc2)c1`, the “% Inhibition” value amounted to 0% and the Z score was -0.01.

With `O=C(Nc1ccc(OCc2ccccc2)cc1)c1ccc2ccccc2n1`, the “% Inhibition” value was -4% and the Z score is listed as 0.54.

With `CCN=C(NCCC(F)(F)F)NC[C@H](C)c1c(C)noc1C`, the “% Inhibition” value was -3% and the Z score amounted to 0.35.

Turning to `O=C(Nc1ccc(F)c(N2CCS(=O)(=O)CC2)c1)C1=CCCC1`, the “% Inhibition” value is given as -6% and the Z score is given as 1.16.

With `CCNC(=O)c1nn(CC2CC2)c2c1CN(Cc1ccccn1)CC2`, the “% Inhibition” value is on record as -4% and the Z score worked out at 0.58.

Regarding `COCCn1cnnc1CN(C)Cc1ccc(C)c2ncccc12`, the “% Inhibition” value was -2% and the Z score is given as 0.3.

Take `N=C(NS(=O)(=O)c1ccc2ccccc2c1)N1CCN(c2ccccc2)CC1`: the “% Inhibition” value worked out at 31% and the Z score is reported as -3.47.

Take `CCc1nc(CC(=O)Nc2nnc(-c3ccc(C)s3)[nH]2)cs1`: the “% Inhibition” value is -2% and the Z score is 0.2.

For the compound `CCN(C)C(=O)c1ccc(N2CCC3(CCC(=O)N(C4CC4)C3)CC2)nc1`, the “% Inhibition” value is given as -12% and the Z score is recorded as 1.53.

In the case of `Cc1cc(C)c(C#N)c(N2CC(c3ccncc3)C2)n1`, the “% Inhibition” value was -6% and the Z score amounted to 1.17.

For `Cc1cc(N2CCC(NC(=O)[C@@H]3COc4ccccc4O3)CC2)n[nH]1`, the “% Inhibition” value was found to be 10% and the Z score is reported as -1.34.

Regarding `COc1ccnc(N(C)C[C@H]2CC(=O)N(C)C2)n1`, the “% Inhibition” value was -4% and the Z score was determined as 0.53.

For the compound `COc1ccc(C(=O)N2CCCC[C@H]2C(=O)N2CCOCC2)cc1`, the “% Inhibition” value is reported as -5% and the Z score is given as 0.94.

Consider `CC1CCN(c2nc3c(c(Oc4cccc(F)c4)n2)CN(Cc2cccn2C)CC3)CC1`, for which the “% Inhibition” value is listed as -11% and the Z score amounted to 1.04.

As to `CN1CCN(CC2CCCN(C(=O)C3CC3C3CCCCC3)C2)CC1` (centres undefined), the “% Inhibition” value is -17% and the Z score is listed as 1.56.

Take `CCN(CC)c1cc(CCC(=O)NCc2ccc(Cl)cc2)ccn1`: the “% Inhibition” value is -13% and the Z score came out at 1.89.

`COc1ccc(C(=O)c2c(-c3ccc(Cl)cc3)c3c4n(c(COc5ccccc5F)nn24)CCCC3)cc1`: the “% Inhibition” value was -4% and the Z score is recorded as 0.79.

Take `N[C@@H](Cc1c[nH]c2ccccc12)C(=O)NC1CCCC1`: the “% Inhibition” value is recorded as 7% and the Z score was -1.14.

As for `O=C(O)[C@H]1CCCN1c1nc(C2CC2)nc2[nH]ccc12`, the “% Inhibition” value was -2% and the Z score is recorded as 0.25.

As to `CCc1cc(C(=O)N2CCC3(CCC(=O)N(CCOC)C3)CC2)ccn1`, the “% Inhibition” value is 0% and the Z score turned out to be 0.08.

For the compound `Cc1ccc(S(=O)(=O)N2C[C@H](c3cn(C)cn3)[C@@H](N)C2)cc1C`, the “% Inhibition” value was determined as 0% and the Z score is reported as 0.03.

As to `O=C(Nc1ccc(F)cc1F)[C@H]1CCCN(S(=O)(=O)Cc2ccccc2Cl)C1`, the “% Inhibition” value is recorded as 4% and the Z score is on record as -0.48.

In the case of `COc1ccc(CN2CCN(C3=NS(=O)(=O)C(c4ccc(C(C)C)cc4)=C3C)CC2)c(OC)c1OC`, the “% Inhibition” value is recorded as -11% and the Z score is recorded as 1.61.

For `N#Cc1cccc(C2(c3nc(Cc4cccc(F)c4)no3)CCC2)c1`, the “% Inhibition” value is on record as 3% and the Z score is on record as -0.33.

In the case of `COc1cccn([C@@H](C)C(=O)NC(C)C)c1=O`, the “% Inhibition” value is -21% and the Z score is on record as 1.94.

For the compound `CCS(=O)(=O)CC(C)NC(C)c1cccc(F)c1` (centres undefined), the “% Inhibition” value is listed as 9% and the Z score is given as -1.2.

On to `CC(C)[C@H](CNc1nccnc1C#N)N1CCCC1`, for which the “% Inhibition” value stood at 1% and the Z score is -0.21.

For `O=C(c1cnccn1)N1CC[C@H]2COC(=O)N2c2ccccc2C1`, the “% Inhibition” value was determined as 15% and the Z score was -1.69.

Usually % Inhibition stands for the relative decrease from the control value, in per cent.
